# PubChem BioAssay AID1030 (National Center for Advancing Translational Sciences (NCATS), 2008)
# Out of some 220,000 compounds screened, about 16,000 (7.3%) were called active. The shares of active, inactive and inconclusive entries below differ from those in the screen. Calls come from the whole dose curve; as a rule, active = well fitted inhibition curve with a large enough effect (not every such curve was filed as active); inconclusive = small, poorly fitted or top-dose-only effect, or another doubt; inactive = no such curve, though single readings can be large or run the other way. Potencies of inconclusive entries are left out as doubtful fits.
# Target: Aldehyde dehydrogenase 1A1 (Homo sapiens) (UniProt P00352)
# Chain of UniProt P00352 (P00352 whole entry, looked up): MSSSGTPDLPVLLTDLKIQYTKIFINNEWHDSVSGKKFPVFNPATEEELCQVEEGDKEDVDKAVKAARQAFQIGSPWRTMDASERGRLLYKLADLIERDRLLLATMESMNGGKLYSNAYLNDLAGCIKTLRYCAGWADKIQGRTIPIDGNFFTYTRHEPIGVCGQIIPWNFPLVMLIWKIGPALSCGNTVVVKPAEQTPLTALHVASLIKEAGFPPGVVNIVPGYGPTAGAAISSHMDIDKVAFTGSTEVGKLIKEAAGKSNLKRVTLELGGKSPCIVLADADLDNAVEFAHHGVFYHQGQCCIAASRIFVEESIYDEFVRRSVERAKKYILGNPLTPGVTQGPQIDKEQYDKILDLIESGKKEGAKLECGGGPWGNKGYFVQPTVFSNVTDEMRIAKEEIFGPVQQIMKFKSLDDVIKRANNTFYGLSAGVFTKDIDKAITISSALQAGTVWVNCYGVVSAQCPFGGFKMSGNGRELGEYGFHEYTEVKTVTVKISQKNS
# Assay: qHTS Assay for Inhibitors of Aldehyde Dehydrogenase 1 (ALDH1A1)
# Settings: Purified ALDH1A1, NADH fluorescence, propionaldehyde substrate; series mostly up to 75.3 µM
# Potency is the fitted concentration of half-maximal effect; tags give direction and shape of the fitted curve.
row,SMILES,Potency
1,Cc1ccc(N=C/C(C(=O)C(F)(F)F)=C(\O)c2ccco2)cc1Cl,active: 2.24 µM
2,Cc1c(N(C)C(=O)c2ccco2)c(=O)n(-c2ccccc2)n1C,inactive
3,O=C1C2CC=CCC2C(=O)N1c1ccc(N2CCN(c3ccccn3)CC2)c([N+](=O)[O-])c1 (centres undefined),active: 17.8 µM
4,CCN1C(=O)c2cccc3c(NC(=O)c4ccc(S(=O)(=O)N5CCOCC5)cc4)ccc1c23,active: 2 µM
5,Oc1ccc2c(c1)OCC1(O)Cc3cc(O)c(O)cc3C21 (centres undefined),active: 28.2 µM
6,C=C1OC(CO)(n2cnc3c(N)ncnc32)C(O)C1O (centres undefined),inactive
7,COc1ccc(-c2cc(C(F)(F)F)nc(-n3cc(Br)cn3)n2)cc1,"inconclusive [inhibitor, partial curve]"
8,CCCC(=O)Nc1cc(C(=O)O)ccc1S(=O)(=O)c1ccc(C)cc1,"inconclusive [inhibitor, single point]"
9,Cc1ccc(-c2nn(C)c(=O)c3ccccc23)cc1CNC(=O)Cn1nc(-c2ccccc2)c2ccccc2c1=O,inactive
10,Cn1nc(C(=O)OCc2ccccc2F)c2ccccc2c1=O,"inconclusive [inhibitor, single point]"
11,O=C(NNC(=O)C1C2CCC(C2)C1C(=O)O)c1ccc(Cl)cc1 (centres undefined),"inconclusive [inhibitor, single point]"
12,CC1(c2ccccc2)NC(=O)N(CC(=O)Nc2cccc(C#N)c2)C1=O (centres undefined),"inconclusive [inhibitor, single point]"
13,COC(=O)C1C(c2ccccc2)C(C(=O)OCc2ccco2)C1c1ccccc1 (centres undefined),"inconclusive [inhibitor, partial curve, poor fit]"
14,CN(C(=O)CSc1nc(-c2ccccc2)cs1)C1CCS(=O)(=O)C1 (centres undefined),"inconclusive [inhibitor, single point]"
15,Cc1ccccc1NN=Nc1nc2c([nH]1)c(=O)n(C)c(=O)n2C,"inconclusive [inhibitor, single point]"
16,COc1ccc(N(C(C)C(=O)NCc2ccco2)S(C)(=O)=O)cc1 (centres undefined),"inconclusive [inhibitor, single point]"
17,O=C(O)c1nc(-c2ccccc2)n(-c2ccccc2)n1,inactive
18,Cc1ccc(-c2nn(-c3ccccc3)cc2C(=O)N2CCOCC2)cc1,"inconclusive [inhibitor, partial curve]"
19,S=C(Nc1ccc(Cl)c(Cl)c1)NC1CCCCC1,inactive
20,O=C(C1CCCN(Cc2cccc(F)c2)C1)N1CCCCC1 (centres undefined),"inconclusive [inhibitor, single point]"
21,Cc1ccc(NC(=O)CSCC#N)cc1Cl,"inconclusive [inhibitor, partial curve, poor fit]"
22,Cc1c(Cl)c(-c2n[nH]c(=S)n2CC(C)C)nn1C,"inconclusive [inhibitor, single point]"
23,COC(=O)c1sccc1NC(=S)N1CCN(c2ccccc2)CC1,inactive
24,CC1Cc2ccccc2N1C(=O)COC(=O)Cn1nnc(-c2ccccc2)n1 (centres undefined),active: 0.708 µM
25,CC(C)c1onc(C(=O)NCc2ccccc2)c1[N+](=O)[O-],inactive

row,SMILES,Potency
1,COC(=O)c1sccc1NC(=O)c1ccc(OC)cc1,"inconclusive [inhibitor, partial curve]"
2,O=c1c2c(nc3cc(-c4cccc(F)c4)[nH]n13)CCC2,"inconclusive [inhibitor, partial curve]"
3,Cc1nc2cnc(N3CCN(C)CC3)nc2n(C2CC2)c1=O,"inconclusive [inhibitor, partial curve]"
4,COc1cc2c(cc1O)C(SC)=NC(C)(C)C2,"inconclusive [inhibitor, single point]"
5,Cc1ccc(S(=O)(=O)C2(C(=O)NC3CCCCC3C)CC2)cc1 (centres undefined),inactive
6,Cc1nc(CCN2C(=O)c3ccccc3C2=O)cs1,inactive
7,COc1ccc(S(=O)(=O)Cc2ccc(C(=O)NCc3cccnc3)o2)cc1,"inconclusive [inhibitor, partial curve]"
8,COc1ccc2c(C)c(C)c(=O)oc2c1OC,"inconclusive [inhibitor, single point]"
9,Cc1cc2ccccn2c1C(=O)c1nc(N2CCOCC2)ncc1Cl,inactive
10,Cc1[nH]nc2c1C(c1ccc(Cl)cc1)C(C#N)=C(N)O2 (centres undefined),"inconclusive [inhibitor, partial curve]"
11,O=C(CSc1nnc(-c2ccc(F)cc2)c2ccccc12)NCC1CCCO1 (centres undefined),"inconclusive [inhibitor, single point]"
12,CN(C)c1ccc(N=C/C=C2\N(C)c3ccccc3C2(C)C)cc1,"inconclusive [inhibitor, single point]"
13,O=[N+]([O-])c1cc(/C=N/N2CCN(Cc3ccccc3)CC2)ccc1Cl,inactive
14,COc1cccc(OC)c1C(=O)NC(=S)Nc1cc(-c2nc3ccccc3[nH]2)ccc1Cl,active: 22.4 µM
15,O=C(CCCN1C(=O)c2ccccc2C1=O)Nc1nccs1,"inconclusive [inhibitor, single point]"
16,Cc1ccc(C(=O)NC(C)c2ccccc2)o1 (centres undefined),"inconclusive [inhibitor, single point]"
17,Cc1ccc(C)c(S(=O)(=O)Nc2nc3ccc(S(N)(=O)=O)cc3s2)c1,inactive
18,Cc1ccc(CC(=O)Nc2nc3ccccc3s2)cc1,"inconclusive [inhibitor, single point]"
19,C/C(Cl)=C/CCl,"inconclusive [inhibitor, single point]"
20,C/C(=N/NC(=S)Nc1cccc(C)c1)c1cccc([N+](=O)[O-])c1,active: 8.91 µM
21,CCN(Cc1ccncc1)C(=O)c1cccc(S(=O)(=O)N2CCOCC2)c1,"inconclusive [inhibitor, single point]"
22,Cc1ccc(/C=C/C(=O)N2CCN(S(=O)(=O)c3c(C)c(C)cc(C)c3C)CC2)o1,active: 14.1 µM
23,CCC(=O)Oc1ccc2oc(=O)cc(C)c2c1,"inconclusive [inhibitor, single point]"
24,COc1ccc(Nc2c(-c3ccco3)nc3ccc(C)cn23)cc1,"inconclusive [inhibitor, single point]"
25,O=Cc1nc(-c2ccc(Cl)cc2)n2ccccc12,"inconclusive [inhibitor, single point]"

row,SMILES,Potency
1,N#CC1=C(S)N(c2ccc(F)cc2)C(c2ccco2)NC1=O (centres undefined),"inconclusive [inhibitor, single point]"
2,CCOC(=O)c1ccc2nc(NC(=O)C(C)C)sc2c1,"inconclusive [inhibitor, single point]"
3,CCCCn1c(=O)c(CCC(=O)OCC(=O)Nc2ccc(F)c(Cl)c2)nc2ccccc21,"inconclusive [inhibitor, single point]"
4,O=C(COC(=O)CSCC(=O)N1CCCCC1)Nc1ccc(Cl)cc1,"inconclusive [inhibitor, partial curve]"
5,CC(C)(O)C1CC[C@@]2(C)C3CCC4[C@@]5(C)CCCC(C)(C)C5C(O)C[C@]4(C)[C@]3(C)CC[C@@H]12 (some centres undefined),inactive
6,COc1ccc(/C=N/NC(=O)c2cc(-c3ccc4c(c3)OCO4)n[nH]2)cc1OC,"inconclusive [inhibitor, single point]"
7,O=C(COC(=O)CNS(=O)(=O)/C=C/c1ccccc1)NC1CCS(=O)(=O)C1 (centres undefined),"inconclusive [inhibitor, partial curve]"
8,CCCN1C(=O)C(Cc2nc3ccccc3c(=O)n2-c2ccccc2)c2ccccc21 (centres undefined),active: 8.91 µM
9,COc1ccc(-c2nc3cnc(OC)nc3n(C3CC3)c2=O)cc1,"inconclusive [inhibitor, full curve]"
10,CC(C)CC(=O)NC(=S)NCCc1ccccc1,inactive
11,O=C(CCc1nc(-c2ccccc2)no1)N1CCCC1,inactive
12,CC(C)=CCCC(C)CN1CCC(N2CCC(C(=O)N3CCCC3)CC2)CC1 (centres undefined),inactive
13,CCC(C)NC(=O)CCCCCn1c(=O)[nH]c2cc(OC)c(OC)cc2c1=O (centres undefined),"inconclusive [inhibitor, single point]"
14,CC(=O)C(Sc1ccc2nnc(-c3ccc(C)cc3)n2n1)C(C)=O,"inconclusive [inhibitor, single point]"
15,COC(=O)c1ccc(NC(=O)C23CCC(C)(C(=O)O2)C3(C)C)cc1 (centres undefined),inactive
16,CCN(CC)CCNC(=O)/C(=N\O)c1ccccn1,inactive
17,COc1ccc(-c2ncc3ccccn23)cc1,"inconclusive [inhibitor, partial curve]"
18,COc1ccccc1Nc1nc(-c2sc(NC(=O)c3ccco3)nc2C)cs1,"inconclusive [inhibitor, single point]"
19,C=C(C)CSc1nnc([C@H](CCSC)NC(=O)OC(C)(C)C)o1,"inconclusive [inhibitor, single point]"
20,COc1cc(C)c(CNc2ccc(OC)c(OC)c2)cc1C,active: 25.1 µM
21,Cc1cc(C)n(-c2nc(NCCCO)c3c4c(sc3n2)CCCC4)n1,"inconclusive [inhibitor, partial curve]"
22,S=C1NCN(Cc2ccccc2)CN1,"inconclusive [inhibitor, partial curve]"
23,O=C(CN1C(=O)/C(=C/c2ccccc2)SC1=S)Nc1ncc(Cc2ccccc2)s1,"inconclusive [inhibitor, single point]"
24,Cc1cc(S(=O)(=O)Nc2ccc3c(c2)COC3=O)ccc1F,"inconclusive [inhibitor, partial curve]"
